B1: CPEB3 Ribozyme (parent)
chain: UAACAGGGGGCCACAGCAGAAGCGUUCACGUCGCAGCCCCUGUCAGAUUCUGGUGAAUCUGCGAAUUCUGCUGUAUAUCUC

Among the data in the RNAGym collection of RNA variant scans (doi:10.1093/nar/gkz1192) are self-cleavage values, retold here.

Read counts are not given, so values of variants with three or more changes are uncertain.

The data set covers variants of B1. Description: self-cleavage, relative activity (ratio to wild type); higher = more cleavage; in vitro, sequencing. The method, boiled down: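 Barcoded CPEB3 ribozyme mutants, produced by rounds of error-prone PCR, self-cleaved while being transcribed with T7 RNA polymerase for 5 hours at 37°C and during a subsequent 15 min DNase I step before EDTA was added. Sequencing of template-switched cDNA on Illumina gave cleaved and total reads, and DNA sequencing assigned barcodes to variants. Each variant's relative activity is its cleaved/total read fraction divided by the unmutated ribozyme's fraction, averaged across three batches. A variant needed a minimum of 5 reads.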
As to A18G U25A U41C U49A G52C C68G U69C, the self-cleavage is 0.11.
For A18G U25C U41A U49A, the self-cleavage was 0.06.
As to A18G U26A A28G G36A U48A U72A, the self-cleavage came out at 0.1.
As for A18G U25C U49C G53C U74A, the self-cleavage worked out at 0.28.
To A18U A45G A65G U76C belongs 0.43; to A18G U26A U51C A56C, 0.21; to A18U A35G U69C U76G, 1.1.
The value for A18G G24A U26C U67A was 0.19; that for A18G G33A U41C A45G U49C A77G was 0.16; that for A18G U69A U78C was 0.46.
As to A18G U31C G33U U74C, the self-cleavage stood at 0.23.
The value for A18G G30C A56G G63A A77U was 0.17; that for A18G U25C G46C U49A U69C U72C was 0.21; that for A18G U60C G61A A77U was 0.22.
The value for A18U A21G A35U C44A U74C was 0.27.
For the variant A18G G61C A77G, the self-cleavage was 0.2.
Regarding A18U A21G A28U A65G U80C, the self-cleavage came to 0.07.
On to A18G U26C A35G, for which the self-cleavage was 0.36.
The value for A18U A28G A35G U41A U60C was 0.11.
The value for A18U A20U U31C U74C was 0.1.
As for A18U A28G A35G A64G A65G U80C, the self-cleavage was 0.17.
With A18G U25C U41C C62U, the self-cleavage was found to be 0.26.
A18U A21G U69A: the self-cleavage was 0.66.
For A18G U26C U41C, the self-cleavage came out at 0.32.
A18G U49C U80C: the self-cleavage was 0.29.
A18G U49C A56U A64U: the self-cleavage amounted to 0.12.
Consider A18G G36U C39G C50U, for which the self-cleavage amounted to 0.15.
For A18G U43C U60A U74C A75G, the self-cleavage is 0.07.
To A18U A20C A35G U43C belongs 0.24.
The value for A18G G30C U43C A47G U58C A64G U72A was 0.05; that for A18G U31C A65G U66C was 0.34; that for A18G U26A A75G was 0.27.
As to A18U A20U C29A C38A A64G U78A, the self-cleavage was determined as 0.04.
As for A18U A47G G52C C62U A75U, the self-cleavage was 0.25.
With A18U A20U U67C, the self-cleavage worked out at 0.11.
Turning to A18G U58A A65G U72A U78C, the self-cleavage worked out at 0.11.
The value for A18G G33C A65G U80A was 0.16; that for A18U A20U A47G C68A A75G was 0.11; that for A18G U41C U51C G73A was 1.15.
With A18U A28C A56G U58C, the self-cleavage came to 0.14.
The value for A18U A35U G36A U72A was 0.14.
The value for A18G U26C A28C C40G U67C was 0.16; that for A18U A21G G42A was 0.07.
The value for A18G U26A U48A was 0.26; that for A18U A20G U66C A75C was 0.15; that for A18G U25C U31C C32U U48A U69C was 0.05.
For the variant A18U A20U U69C, the self-cleavage turned out to be 0.18.
Regarding A18G U43C U48C U58C A75G, the self-cleavage was 0.05.
The value for A18G U26C U31C U51C was 0.06; that for A18G U49C U74C was 0.24; that for A18G G63C U80C was 0.71.
The value for A18G U31C U58C was 0.19; that for A18G G24C U60C was 0.21.
Consider A18U A20U C62G U78C, for which the self-cleavage came out at 0.07.
On to A18U A20G A28U C32A U60A C62G, for which the self-cleavage is 0.13.
To A18G G22C C32U belongs 0.39; to A18U A21U U43A A65U U67C U72A, 0.01; to A18G U26A C29U U76A, 0.22.
In the case of A18G U48C U58A, the self-cleavage stood at 0.21.
Regarding A18G G22U U26C A64G U78C, the self-cleavage amounted to 0.15.
With A18U A20G A21G C38A A45C, the self-cleavage was found to be 0.03.
The value for A18G U31A A65G U67C U72C was 0.12; that for A18U A28G C37U U41C U51A A56G was 0.15.
The value for A18G U43A C62G was 0.18; that for A18G U31C A45G U67A was 0.05; that for A18U A20G A56G U76C was 0.44.
As to A18G U43C A45U G70A, the self-cleavage is 0.1.
Turning to A18G U51A U54C, the self-cleavage came to 0.86.
For the variant A18U A20U A28G U78G, the self-cleavage was found to be 0.05.
To A18G U26C A57U U67C belongs 0.
To A18U A35U U41C belongs 0.16.
To A18G G63C U66C C71A belongs 0.13; to A18U A21G U48A A56G, 0.07.
Regarding A18G U26G A77U, the self-cleavage is 0.16.
The value for A18G U66C U78C was 0.26; that for A18G U31A A35G U54C was 0.58.
For A18U A35G A56G U72C A77G, the self-cleavage was 0.47.
For A18G U60G A77G, the self-cleavage stood at 0.31.
The value for A18U A35G C39U U51A C59A was 0.22.
The value for A18G U25C U54G U80C was 0.26; that for A18U A20G A64G was 0.2; that for A18G U51C U58C A64U was 0.19.
To A18G U54C U67A belongs 0.2; to A18G U26C G52A A56G U72C, 0.15.
In the case of A18G U41G A57G U72C, the self-cleavage turned out to be 0.07.
To A18G U31C U51A U54A A64G belongs 0.15.
Regarding A18G G24U U49C, the self-cleavage amounted to 0.4.
Take A18G U43C A56U U72C: the self-cleavage was 0.11.
With A18U A21U U31C, the self-cleavage came to 0.17.
The value for A18U A28G U69C was 0.16; that for A18U A47G A57G C71U was 0.24.
To A18G U31G A35G U54C U66C U76A A77G belongs 0.5; to A18G U41C U60G, 0.32.
To A18G U41C U60A belongs 0.13; to A18U A28G U31C U49C, 0.1; to A18G U26C A35U G70A A77G, 0.07.
For the variant A18G U41A A56G U80C, the self-cleavage was found to be 0.28.
The value for A18G U25C A47U U49C U66A U69A U80C was 0.15; that for A18G U74A U76A was 1.24; that for A18G U25A A35G C40U U69C was 0.12.
Turning to A18U A28G A45U A64G, the self-cleavage worked out at 0.07.
With A18G U26C U31C U43C, the self-cleavage stood at 0.31.
Turning to A18G U54C A65C, the self-cleavage amounted to 0.07.
To A18G U31A U41A U67A G70A belongs 0.23; to A18G G24U C81G, 0.2; to A18G U48C G55A A75G, 0.14.
Regarding A18G U60A A64G, the self-cleavage is 0.36.
On to A18G U26C U48C C68A, for which the self-cleavage was 0.35.
Regarding A18G U31A A35U, the self-cleavage was found to be 0.24.
To A18U A28U A56G U60G C62U U67C belongs 0.1.
To A18U A21G C38U U58C belongs 0.24.
With A18U A21G A64U, the self-cleavage worked out at 0.56.
As for A18U A45U U51A G53A A77G, the self-cleavage was found to be 0.05.
To A18G U54C A77G belongs 0.74.
To A18G U49A U67C A77G belongs 0.1; to A18G U25G A45G, 0.37.
For the variant A18G U25C A45G U58C, the self-cleavage worked out at 0.29.
The value for A18G U26C A47G U49G was 0.35.
Consider A18U A20U A28G U48C, for which the self-cleavage stood at 0.21.
The value for A18G U41C U51C U72C was 0.2; that for A18U A21G U31C A35G A75G U78C was 0.2.
For the variant A18U A45G A64U U74C, the self-cleavage came out at 0.1.
As to A18G U43C A57C U67C, the self-cleavage was 0.11.
To A18G U41C A45U A47U U49C A57G U74A belongs 0.02.
The value for A18U A45G A56U was 0.3; that for A18U A21G U26C C29A U41C U49C A75G was 0.14; that for A18G U43A U76A was 0.95.
In the case of A18G U41A A64G A77U, the self-cleavage was found to be 0.06.
In the case of A18U A35U U48C, the self-cleavage came to 0.06.
The value for A18G G24A U49C was 0.16; that for A18G G22C A57G was 0.06.
On to A18G U43C G46U U54G U60A U78C, for which the self-cleavage came to 0.04.
The value for A18G U26C C29U U31C A45G U49C U76C was 0.08; that for A18U A21G G46U U49C A56G was 0.15.
The value for A18G U25C C37U was 0.19.
To A18U A20G C34U A47G U48C U51C belongs 0.19.
A18G U43C C68A: the self-cleavage is 0.15.
In the case of A18G U49C U72C, the self-cleavage is 0.32.
To A18G U25C G30A C37G U48C U66C belongs 0.18.
In the case of A18G U31C A45G, the self-cleavage was 0.13.
With A18U A45U U49C U58A U67C, the self-cleavage amounted to 0.06.
The value for A18G U43A U51C C71G was 0.38; that for A18G U51C A75U was 0.8.
Regarding A18G U51C U72C, the self-cleavage turned out to be 0.45.
To A18G G24A U51A A64G belongs 0.16; to A18G G22C A28G U51A, 0.25.
The value for A18U A20G U43C A47G was 0.35; that for A18G U26A A65G U72C was 0.16; that for A18G U58A U80C was 0.2.
With A18U A35G U58C U72C, the self-cleavage was 0.47.
For the variant A18G G33A A35U G36A A45G A75U, the self-cleavage is 0.2.
The value for A18G U41A C44A was 0.26; that for A18U A20U U43C was 0.2.
The value for A18U A20G A45G A65G U72A was 0.12.
A18G G22A U25C U67A U80C: the self-cleavage was 0.05.
To A18G G19U U66C U76A belongs 0.07; to A18G U43A U51G U67A, 0.36; to A18G U31A U54A, 0.38.
On to A18U A35G G52A, for which the self-cleavage stood at 0.59.
For A18G G33A A45G G73A, the self-cleavage worked out at 0.09.
The value for A18G G36A A45G U54C U67C U74A was 0.07; that for A18G U26C G33A was 0.1.
Take A18G U25C U26C A35U: the self-cleavage was found to be 0.07.
The value for A18G G46U A57G U76A was 0.1.
As to A18U A20G U41C A56C, the self-cleavage was found to be 0.29.
Take A18G U54G U80A: the self-cleavage turned out to be 0.86.
The value for A18G U51C A56G A75G was 0.44.
